In all, about 310,000 compounds went through this assay and about 2,200 (0.71%) showed an effect of 50% or more. Effects have a minus sign here. The list shows a part of the results.
biological target: human ether-à-go-go-related gene (hERG) potassium channel (human, UniProt Q12809); test: primary screen, population patch clamp on CHO cells stably expressing hERG
Sequence (Q12809 whole entry, looked up): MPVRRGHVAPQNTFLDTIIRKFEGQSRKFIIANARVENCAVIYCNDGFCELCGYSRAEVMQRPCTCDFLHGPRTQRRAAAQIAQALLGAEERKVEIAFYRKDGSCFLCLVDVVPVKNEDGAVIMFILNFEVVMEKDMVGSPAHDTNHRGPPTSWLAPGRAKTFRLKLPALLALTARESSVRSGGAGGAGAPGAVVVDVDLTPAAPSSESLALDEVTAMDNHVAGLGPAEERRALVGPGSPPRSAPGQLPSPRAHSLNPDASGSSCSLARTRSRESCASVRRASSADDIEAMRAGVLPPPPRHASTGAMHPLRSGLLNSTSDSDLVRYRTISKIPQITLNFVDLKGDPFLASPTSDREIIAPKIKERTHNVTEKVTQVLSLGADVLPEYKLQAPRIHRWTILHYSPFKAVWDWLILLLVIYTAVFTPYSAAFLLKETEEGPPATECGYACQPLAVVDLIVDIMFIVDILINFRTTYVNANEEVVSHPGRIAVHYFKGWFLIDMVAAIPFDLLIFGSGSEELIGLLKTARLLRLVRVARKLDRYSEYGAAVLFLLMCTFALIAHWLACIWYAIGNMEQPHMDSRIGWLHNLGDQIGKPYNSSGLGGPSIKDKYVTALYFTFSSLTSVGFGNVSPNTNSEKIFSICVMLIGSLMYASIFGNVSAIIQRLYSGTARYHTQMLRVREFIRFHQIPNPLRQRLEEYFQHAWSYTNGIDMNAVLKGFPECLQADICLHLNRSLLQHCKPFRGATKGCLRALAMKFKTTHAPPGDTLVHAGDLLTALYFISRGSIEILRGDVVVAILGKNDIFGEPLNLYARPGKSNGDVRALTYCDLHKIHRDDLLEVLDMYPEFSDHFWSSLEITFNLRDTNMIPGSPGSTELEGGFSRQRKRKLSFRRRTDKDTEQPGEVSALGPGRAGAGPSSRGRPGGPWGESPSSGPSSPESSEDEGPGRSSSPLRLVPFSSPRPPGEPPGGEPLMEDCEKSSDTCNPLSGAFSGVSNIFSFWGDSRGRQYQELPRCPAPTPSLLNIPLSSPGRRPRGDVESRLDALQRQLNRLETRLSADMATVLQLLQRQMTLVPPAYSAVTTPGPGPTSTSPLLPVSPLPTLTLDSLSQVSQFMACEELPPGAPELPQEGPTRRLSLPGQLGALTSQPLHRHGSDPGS

Compound	hERG current change (%, negative = inhibition) at 1uM [%]
O=C(c1cccc(S(=O)(=O)N2CCCC2)c1)N1CCN(c2ccccc2F)CC1	-8.64
O=C(Nc1ccccc1[N+](=O)[O-])c1cc2ccccc2nc1Cl	9.96
CC1(C)Cc2c(sc3nc(-c4ccccc4)n(N)c(=O)c23)CO1	11.7
O=C(O)c1sc2ncccc2c1OCc1ccccc1	8
Cc1c(Cl)cccc1NC(=S)N1CCN(c2ccccn2)CC1	9.46
C=CCN=C1SC(C)C(=O)N1S(=O)(=O)c1ccccc1 (centres unmarked)	4.31
NC(=O)c1ccc(NC(=O)COC(=O)CCCc2c[nH]c3ccccc23)cc1	19.6
O=C(Nc1cc(C(F)(F)F)ccc1N1CCOCC1)c1ccccc1F	13.3
CCCCNC(=O)CCc1c(C)nc2c(c(C)nn2-c2ccccc2)c1C	-1.82
O=C(Oc1cccc2c(=O)[nH]ccc12)c1ccccc1	-0.679
N#C/C(=C\C=C\c1ccccc1)C(=O)NCc1cccnc1	11.2
CC(=O)Nc1ccc(NC(=O)C2CCCN(S(=O)(=O)c3ccc(-n4cnnn4)cc3)C2)cc1 (centres unmarked)	3.32
O=S1(=O)CCN(Cc2ccc(Cl)cc2)CC1	7.85
CCOC(=O)COc1c(OC)cc(Cl)cc1C1Nc2ccccc2C(=O)N1c1ccc(F)cc1 (centres unmarked)	6.54
Cc1ccc(S(=O)(=O)/N=c2\scc(C)n2C)cc1	-0.124
COc1ccc(/C=C(\NC(=O)c2ccc(OCC(C)C)cc2)C(=O)OCc2ccco2)cc1	8.71
COc1cccc(C(=O)Nc2ccc3c(c2)n(C)c(=O)n3C)c1	11.5
CNC(=O)c1nc(C)c(C2(C)CC(c3ccccc3)=NO2)s1 (centres unmarked)	17.9
COC(=O)c1ccc(C(=O)O)nc1	13.6
CCCCNCC(=O)Nc1sc(C)c(C)c1C(=O)OCC	8.25
CCOC(=O)N1CCC(NC(=O)c2ccc3c(c2)N(CC)CCS3)CC1	2.69
CCN1CCc2c(C#N)c(NCc3ccccc3)nc(N(CC)CC)c2C1	-13.2
COc1ccc(-c2nnc(-c3ccc(N(C)C)cc3)o2)cc1	7.15

Compound	hERG current change (%, negative = inhibition) at 1uM [%]
Nn1c(Cc2ccc(Br)cc2)n[nH]c1=S	10.6
O=C(CCN1C(=O)/C(=C/c2ccccc2)SC1=S)N[C@@H](CO)Cc1ccccc1	20.6
CCCCCCCCN1[C@@H](CC(=O)O)c2cc(C(F)(F)F)ccc2S1(=O)=O	15.7
O=C(O)C1CC(O)CN1S(=O)(=O)c1cccs1 (centres unmarked)	15.3
COc1ccccc1N1CCN(C(=O)C(Cc2ccccc2)NC(=O)C2CCCCC2)CC1 (centres unmarked)	3.3
O=C(COc1c(CO)cc(Br)cc1CO)NC1CCCc2ccccc21 (centres unmarked)	8.62
Cc1ccc(S(=O)(=O)NNC(=O)C(=O)NNc2ccccn2)cc1	5.54
O=C(NCc1nc2ccccc2[nH]1)c1ccc([N+](=O)[O-])cc1	6.75
CCN(CC)C(=O)c1[nH]cnc1C(=O)N[C@@H](Cc1ccccc1)C(=O)OC(C)(C)C	1.41
CC(C)(C)c1ccc(COn2ccnc2)cc1	21
Cc1cc(C)n(-c2ccc(C(=O)NC3=NCCS3)cc2)n1	7.99
CCOC(=O)C1(Cc2cccc(OC)c2)CCN(Cc2cnc(N)nc2)CC1	5.79
CCOc1ccc(CCNC(=O)CN2C(=O)NC3(CCCCC3)C2=O)cc1OCC	-5.56
CC(C)(CNC(=O)c1ccc(-c2cccc(C(F)(F)F)c2)o1)N1CCOCC1	-19.6
CCn1c(N2CCN(CC(=O)c3c(C)n(C)c4ccccc34)CC2)nc2c1c(=O)[nH]c(=O)n2C	-3.11
Cc1ccccc1NC(=O)CN(C)S(=O)(=O)c1ccc(-c2ccc(=O)[nH]n2)s1	-47.7
Cc1nc(-c2ccc(Cl)cc2)sc1C1(C)CC(c2ccc(C#N)cc2)=NO1 (centres unmarked)	6.37
Cc1nc(-c2ccc(S(=O)(=O)N3CCCCCC3)cc2)cs1	12.4
Cc1cc(C(=O)CSc2nnnn2-c2ccccc2)c(C)n1CC1CCCO1 (centres unmarked)	-0.214
O=C(O)c1cccc(CN2C(=O)SC(Nc3cccc4ccccc34)C2=O)c1 (centres unmarked)	-1.25
COc1ccc(-c2ccc(=O)n(CC(=O)NC3CCc4ccccc43)n2)cc1OC (centres unmarked)	-0.033
CC1CN(C(C)C)C(C)CC1OC(=O)c1ccccc1 (centres unmarked)	16.7
CC(=O)NC(Cc1ccc(N(CCCl)CCCl)cc1)C(=O)O (centres unmarked)	6.69

Compound	hERG current change (%, negative = inhibition) at 1uM [%]
O=C(CN1CCN(C(=O)c2ccco2)CC1)Nc1ccc(Cl)c(C(F)(F)F)c1	-32.5
C[C@]12C=CC(=O)C=C1CC[C@@H]1C2CC[C@]2(C)OC(=O)CCC12 (some centres unmarked)	10.8
CCOC(=O)c1c(CC(C)C)csc1/N=C/C1C(=O)CC(C)(C)CC1=O	14.1
Cc1cc2nnc(SCC(=O)NC3CCCCC3)n2c(N)n1	13.1
O=C(Nc1cc(C(F)(F)F)ccc1F)C1CCCCC1	-6.98
Cc1ccc(C(=O)COC(=O)CNC(=O)Cc2ccccc2)cc1	2.2
CCOC(=O)CNC(=O)C(Cc1ccccc1)NS(=O)(=O)c1ccc2c(c1)CCC(=O)N2 (centres unmarked)	3.37
COCCN(CC(=O)Nc1cccc(C)c1C)C(=O)c1ccc2ccccc2n1	5.04
COC(=O)c1sccc1NC(=O)CC1C(=O)NCCN1C(=O)Nc1ccc(OCc2ccccc2)cc1 (centres unmarked)	-0.342
CCOC(=O)C1(CCOc2ccccc2)CCN(Cc2cccc(OC)c2)CC1	-24.4
CC(C)n1c(CCCO)nc2ccccc21	4.55
O=C(Oc1ccc(C(=S)N2CCCCC2)cc1)c1ccccc1F	8.51
CC(C)(C)C(=O)C1=C(O)C(=O)N(Cc2ccccc2)C1c1ccccc1F (centres unmarked)	19.5
COc1cc(NS(=O)(=O)c2csc(C(N)=O)c2)cc(OC)c1	20.5
CCCCNC(=O)c1c(O)c2cccc3c2n(c1=O)CCC3	3.9
O=c1cc(CSc2nnc(COc3cccc4ccccc34)o2)c2ccccc2[nH]1	14.9
O=c1cc(CCl)nc2scc(-c3ccccc3)n12	5.45
CC(C)OP(=O)(c1ccc(N(C)C)cc1)C(O)c1ccncc1 (centres unmarked)	9.88
COc1ccc(-c2ncncc2-c2ccc(OC)c(OC)c2)c(O)c1	10.6
COc1ccc(C2C(C(=O)/C=C/c3ccco3)=C(O)C(=O)N2CCN2CCOCC2)cc1OC (centres unmarked)	12.8
CCCCn1c(N)c(N(CCC(C)C)C(=O)c2ccc(-c3ccc([N+](=O)[O-])cc3)o2)c(=O)[nH]c1=O	3.36
Oc1ccc(NC(=S)N=Nc2c(O)[nH]c3ccccc23)cc1	11.5
CC(C)Cc1ccc(CN2CCCC(NC(=O)CCCN3CCCC3=O)C2)cc1 (centres unmarked)	-14.9

Compound	hERG current change (%, negative = inhibition) at 1uM [%]
CCOC(=O)Cc1nnc2c(Nc3ccccc3F)nc3nonc3n12	3.46
CN(/N=C/c1ccc(Cl)cc1)c1ncc(Cl)cc1C(F)(F)F	14.6
COc1ccc(Cc2nnc(NC(=O)Nc3ccccc3F)s2)cc1OC	13.2
Cc1cc2cc(CNC(=O)c3cccs3)ccc2n1C	6.73
CCn1c(CNC(=O)c2ccc(OC)c(OC)c2)nnc1SCC(=O)Nc1ccc(OC)cc1	6.99
CCCCN1CC(C(=O)NC2CCCCC2)CC1=O (centres unmarked)	13.6
Cc1ccc(N2CC(C(=O)NC3CC3)CC2=O)cc1Cl (centres unmarked)	13.2
Cc1ccc(S(=O)(=O)CC(=O)N2CCOCC2)cc1	0.468
COC1=CC(=O)C[C@@H](C)[C@]12Oc1c(Cl)c(OC)cc(OC)c1C2=O	3.75
O=C(NNC(=O)c1ccccc1F)c1ccc2nc[nH]c2c1	0.315
Cc1cccc(NC(=O)COc2coc(CN3CCN(c4ccccc4)CC3)cc2=O)c1C	-9.18
COc1ccc(NC(=O)C2CC(=O)OC23CCOC(C)(C)C3)cc1 (centres unmarked)	10.3
O=C(O)CCCCCNS(=O)(=O)c1ccc(Cl)cc1	13.5
O=C(NCc1ccco1)C1(c2ccccc2)CCCC1	16.7
COc1ccc(CN(Cc2cccnc2)S(=O)(=O)c2ccc(-n3cnnn3)c(OC)c2)cc1	-15.1
O=C(Nc1cccnc1)c1ccc(-c2ccccc2)cc1	2.75
Cc1ccc(N(C)S(=O)(=O)c2cccc(C(=O)OCC(=O)N3CCCC(C)C3)c2)cc1 (centres unmarked)	-0.403
CC1CN(C2CCCCC2)c2nc3c(c(=O)[nH]c(=O)n3C)n2C1 (centres unmarked)	12.1
CCCCNS(=O)(=O)c1ccc2nc(-c3cccnc3)cc(C(=O)NCCCOC)c2c1	5.42
CNC(=S)NNC(=O)CCn1nc(C)c(Br)c1C	9.11
